# Some of the results follow.
# B1: Epa1-NP-mutant-E227G (Candida glabrata), Q6VBJ0 (protein)
# chain: MILNPALFLNKCVCIYTTLILLLLTNGGYATSSNDISLASKDPTTFPLGCSPDITTPKKGLSMELYSYDFRKKGSYPCWDAAYLDPNYPRTGYKSHRLLAKVDGVTGNINFYYHATKGCTPQLGHLPASYNYPKPLTMTNFTMLLYGYFRPKVTGFHTFTISADDLLFVNFGAGNAFDCCRRDSSADHFGNYQAYAIWGSKTAKDELTVHLDAGVYYPIRLFYNNRGYDGALSFTFKTESNENTVSDFSEYFFSLDDTEEGCPGLISYDSSCASVKTSKIIGIDYHTETPNENLVPITKTIYHLGIPCTGTTTTPLCGSGFYDPLANKCVTINTSSTSSVTKTTSHTTSKEVSFHSSISSQKTLIPKSIPSPYGPIKSQSIPTEMETSSEISSSEYAFSDVISTPSHSPYTKKHSSLNSSSYTSTVIHSLTSYSISQGIFSTSLSEQNITSKSSTDKFSTATSMSNNITQSSIIISQFSTNNENYTTTSMHTSSDKISTETLNNSISTTTSILFSNSSTILKNNTTIISSDKDTHYHPVNPTIVCSTNKTEIICASITQPSISNSNNHWSSSVLKFNSTTVRSTLPSSAGSNETSINVPFSSSTESNTSTSSTSTSNSKMVRSTLPSSAGSNETSISVPFSSSTESNTSTSSTSTSNSKMVRSTLPSSAGSNETSINVPFSSSTESNTSTSSTSTSNSKTVRSTPFSSAGIIMTSLSQRNNKSASSYASSNSKCYNTADSCRKVHSTPSYLLTSSYTSEGVDYDCSLVSTKLKINDTNCVNNKHTTKSCLKTSVTTTIPTLEIKTARKSSSNTIGLHSYPTSSPNKSISSAPIIGYISSFKTIKTASPSYQTSDLTTITTITSLNNPGSTAVENTHESNDKSRKTSSNDISSKHSVIKETKDAVESSNKSHQTNTLKCSSIIIASSSHNSYESLGGTTLTLTLSKVYSPQNNDTLPFLEISEVNPSRTVLPESSKMMQYLTSTEERNKTARNTIATNIVSISTFHFEGEGNAIRMGYTQLLLMLIGIIVMNIGT
# What was measured:
# Experiment in all cases: glycan array binding signal (z-score within array); higher = stronger binding
# Conditions in all cases: glycan notation: IUPAC condensed, linker removed; mutation: E227G
# GalNAc(b1-4)GlcNAc = target: GalNAc(b1-4)GlcNAc
# Procedure, shortened: (§1)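 Columns mapping to the same glycan were averaged after glycan names were converted to IUPAC-condensed notation. The data come from 3228 arrays in the Consortium for Functional Glycomics database, limited to those with an available protein sequence. Binding is reported as a within-array Z-score averaged across arrays of one protein sequence and across linkers.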
# [1] = target: GalNAc(b1-4)GlcNAc(b1-2)Man
# Procedure, shortened: as §1
# [2] = target: GalNAc(b1-4)GlcNAc(b1-2)Man(a1-3)[GalNAc(b1-4)GlcNAc(b1-2)Man(a1-6)]Man(b1-4)GlcNAc(b1-4)GlcNAc
# Procedure, shortened: as §1
# [3] = target: GalNAc(b1-4)GlcNAc(b1-3)GalNAc(b1-4)GlcNAc
# Procedure, shortened: as §1
# GalNAc(b1-4)GlcNAc6S = target: GalNAc(b1-4)GlcNAc6S
# Procedure, shortened: as §1
# GalNAc(b1-6)GalNAc = target: GalNAc(b1-6)GalNAc
# Procedure, shortened: as §1
# GalNAc3S(b1-4)GlcNAc = target: GalNAc3S(b1-4)GlcNAc
# Procedure, shortened: as §1
# GalNAc3S(b1-4)GlcNAc3S = target: GalNAc3S(b1-4)GlcNAc3S
# Procedure, shortened: as §1
# [4] = target: GalNAc3S(b1-4)[Fuc(a1-3)]GlcNAc
# Procedure, shortened: as §1
# GalNAc4S6S(b1-4)GlcNAc = target: GalNAc4S6S(b1-4)GlcNAc
# Procedure, shortened: as §1
# GalNAc6S(b1-4)GlcNAc = target: GalNAc6S(b1-4)GlcNAc
# Procedure, shortened: as §1
# Glc(a1-4)Glc = target: Glc(a1-4)Glc
# Procedure, shortened: as §1
# [5] = target: Glc(a1-4)Glc(a1-4)Glc(a1-4)Glc
# Procedure, shortened: as §1
# Glc(a1-6)Glc(a1-6)Glc = target: Glc(a1-6)Glc(a1-6)Glc
# Procedure, shortened: as §1
# [6] = target: Glc(a1-6)Glc(a1-6)Glc(a1-6)Glc
# Procedure, shortened: as §1
# Glc(b1-4)Glc = target: Glc(b1-4)Glc
# Procedure, shortened: as §1
# Glc(b1-6)Glc = target: Glc(b1-6)Glc
# Procedure, shortened: as §1
# GlcA(b1-3)Gal = target: GlcA(b1-3)Gal
# Procedure, shortened: as §1
# GlcA(b1-3)GlcNAc = target: GlcA(b1-3)GlcNAc
# Procedure, shortened: as §1
# GlcA(b1-6)Gal = target: GlcA(b1-6)Gal
# Procedure, shortened: as §1
# [7] = target: GlcA3S(b1-3)Gal(b1-4)GlcNAc(b1-2)Man
# Procedure, shortened: as §1
# [8] = target: GlcA3S(b1-3)Gal(b1-4)GlcNAc(b1-3)Gal(b1-4)Glc
# Procedure, shortened: as §1
# [9] = target: GlcNAc(a1-3)Gal(b1-4)GlcNAc
# Procedure, shortened: as §1
# [10] = target: GlcNAc(a1-4)Gal(b1-3)GlcNAc
# Procedure, shortened: as §1
# [11] = target: GlcNAc(a1-4)Gal(b1-4)GalNAc
# Procedure, shortened: as §1
# [12] = target: GlcNAc(a1-4)Gal(b1-4)GlcNAc
# Procedure, shortened: as §1
# [13] = target: GlcNAc(a1-4)Gal(b1-4)GlcNAc(b1-3)Gal(b1-4)Glc
# Procedure, shortened: as §1
# [14] = target: GlcNAc(a1-4)Gal(b1-4)GlcNAc(b1-3)Gal(b1-4)GlcNAc
# Procedure, shortened: as §1
# [15] = target: GlcNAc(a1-4)Gal(b1-4)GlcNAc(b1-3)Gal(b1-4)GlcNAc(b1-3)Gal(b1-4)GlcNAc
# Procedure, shortened: as §1
# [16] = target: GlcNAc(a1-4)Gal(b1-4)GlcNAc(b1-3)Gal(b1-4)[Fuc(a1-3)]GlcNAc(b1-3)Gal(b1-4)[Fuc(a1-3)]GlcNAc
# Procedure, shortened: as §1
binder,measurement,setting,value
B1,glycan array binding signal (z-score),GalNAc(b1-4)GlcNAc,-0.103
same,glycan array binding signal (z-score),[1],-0.204
same,glycan array binding signal (z-score),[2],-0.164
same,glycan array binding signal (z-score),[3],-0.194
same,glycan array binding signal (z-score),GalNAc(b1-4)GlcNAc6S,-0.066
same,glycan array binding signal (z-score),GalNAc(b1-6)GalNAc,-0.146
same,glycan array binding signal (z-score),GalNAc3S(b1-4)GlcNAc,0.001
same,glycan array binding signal (z-score),GalNAc3S(b1-4)GlcNAc3S,-0.147
same,glycan array binding signal (z-score),[4],-0.117
same,glycan array binding signal (z-score),GalNAc4S6S(b1-4)GlcNAc,-0.22
same,glycan array binding signal (z-score),GalNAc6S(b1-4)GlcNAc,-0.232
same,glycan array binding signal (z-score),Glc(a1-4)Glc,-0.175
same,glycan array binding signal (z-score),[5],-0.19
same,glycan array binding signal (z-score),Glc(a1-6)Glc(a1-6)Glc,-0.08
same,glycan array binding signal (z-score),[6],-0.087
same,glycan array binding signal (z-score),Glc(b1-4)Glc,-0.154
same,glycan array binding signal (z-score),Glc(b1-6)Glc,-0.141
same,glycan array binding signal (z-score),GlcA(b1-3)Gal,-0.114
same,glycan array binding signal (z-score),GlcA(b1-3)GlcNAc,-0.203
same,glycan array binding signal (z-score),GlcA(b1-6)Gal,0.489
same,glycan array binding signal (z-score),[7],-0.248
same,glycan array binding signal (z-score),[8],-0.278
same,glycan array binding signal (z-score),[9],-0.195
same,glycan array binding signal (z-score),[10],-0.054
same,glycan array binding signal (z-score),[11],-0.296
same,glycan array binding signal (z-score),[12],-0.066
same,glycan array binding signal (z-score),[13],-0.145
same,glycan array binding signal (z-score),[14],-0.063
same,glycan array binding signal (z-score),[15],-0.1
same,glycan array binding signal (z-score),[16],0.002

# Reference: the supplement of paper PMC8728848
